# Source: the supplement of paper PMC12217912
# The other results are listed elsewhere or left out. Sequences were assembled here from the parent chain. Inactive controls read about 0.05.
# B1: TEV protease; numbered along this chain (parent)
# chain: MGESLFKGPRDYNPISSSICHLTNESDGHTTSLYGIGFGPFIITNKHLFRRNNGTLVVQSLHGVFKVKDTTTLQQHLVDGRDMIIIRMPKDFPPFPQKLKFREPQREERICLVTTNFQTKSMSSMVSDTSCTFPSGDGIFWKHWIQTKDGQCGSPLVSTRDGFIVGIHSASNFTNTNNYFTSVPKNFMELLTNQEAQQWVSGWRLNADSVLWGGHKVFMVKPEEPFQPVKEATQL
# Variants of: B1
# Experiment: raw area under fraction-flipped curve 0-4 h after induction (AUC4h, not background-subtracted), DNA-recorder readout of cleavage of the substrate (dimensionless); higher = more cleavage of the substrate by the protease variant
# Conditions: temperature: 34 °C; time window: 0-4 h after rhamnose induction
# Procedure: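 In vivo DNA recorder in E. coli TOP10(DE3) ΔrhaA at 34 °C. Each TEVp single-site mutant (parent TEVp 0) is paired with a single-site variant of the 7-mer TEVs (canonical ENLYFQ|S). The substrate sits between flexible linkers in a Bxb1-sfGFP-TEVs-SsrA fusion, so cleavage stabilises Bxb1 and speeds flipping of a recombination array, read by NGS. The value is the raw area under the fraction-flipped curve over 0-4 h after rhamnose induction (AUC4h), with ≥20 reads per time point. It is not background-subtracted; inactive controls average about 0.047.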
# 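Note: Bxb1 expression induced with 0.2% (w/v) L-rhamnose at OD600 near 0.5, cultures sampled hourly, flipped fraction per protease–substrate barcode pair counted by paired-end Illumina sequencing.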
variant,measurement,value
V113E,area with substrate DNLYFQS,0.0579
same,area with substrate FNLYFQS,0.0718
same,area with substrate GNLYFQS,0.0355
same,area with substrate LNLYFQS,0.0546
same,area with substrate NNLYFQS,0.0658
same,area with substrate PNLYFQS,0.0621
same,area with substrate SNLYFQS,0.048
same,area with substrate VNLYFQS,0.0377
same,area with substrate WNLYFQS,0.0376
same,area with substrate YNLYFQS,0.0475
R87M,area with substrate DNLYFQS,0.0783
same,area with substrate FNLYFQS,0.0727
same,area with substrate HNLYFQS,0.0796
same,area with substrate KNLYFQS,0.0623
same,area with substrate LNLYFQS,0.0616
same,area with substrate NNLYFQS,0.0736
same,area with substrate PNLYFQS,0.0624
same,area with substrate TNLYFQS,0.0725
same,area with substrate WNLYFQS,0.0582
same,area with substrate YNLYFQS,0.0472
S123L,area with substrate DNLYFQS,0.0874
same,area with substrate FNLYFQS,0.0732
same,area with substrate HNLYFQS,0.045
same,area with substrate INLYFQS,0.0674
same,area with substrate KNLYFQS,0.0734
same,area with substrate NNLYFQS,0.0763
same,area with substrate PNLYFQS,0.0689
same,area with substrate SNLYFQS,0.0714
same,area with substrate TNLYFQS,0.0805
same,area with substrate VNLYFQS,0.0623
same,area with substrate WNLYFQS,0.0612
same,area with substrate YNLYFQS,0.0671
H76Y,area with substrate DNLYFQS,0.0454
same,area with substrate HNLYFQS,0.0401
same,area with substrate KNLYFQS,0.0704
same,area with substrate LNLYFQS,0.0626
same,area with substrate PNLYFQS,0.0722
same,area with substrate RNLYFQS,0.0646
same,area with substrate SNLYFQS,0.0537
same,area with substrate TNLYFQS,0.0646
same,area with substrate VNLYFQS,0.0724
same,area with substrate WNLYFQS,0.0575
same,area with substrate YNLYFQS,0.0656
E103N,area with substrate DNLYFQS,0.0592
same,area with substrate GNLYFQS,0.0645
same,area with substrate KNLYFQS,0.0663
same,area with substrate PNLYFQS,0.0282
S121N,area with substrate DNLYFQS,0.0734
same,area with substrate FNLYFQS,0.0598
same,area with substrate GNLYFQS,0.063
same,area with substrate HNLYFQS,0.0629
same,area with substrate LNLYFQS,0.0645
same,area with substrate NNLYFQS,0.0678
same,area with substrate TNLYFQS,0.0674
same,area with substrate WNLYFQS,0.063
R106C,area with substrate DNLYFQS,0.109
same,area with substrate GNLYFQS,0.0519
same,area with substrate HNLYFQS,0.0581
same,area with substrate MNLYFQS,0.0754
same,area with substrate PNLYFQS,0.0548
same,area with substrate QNLYFQS,0.076
same,area with substrate TNLYFQS,0.0641
same,area with substrate VNLYFQS,0.0757
same,area with substrate WNLYFQS,0.062
N116I,area with substrate DNLYFQS,0.0634
same,area with substrate GNLYFQS,0.0493
same,area with substrate LNLYFQS,0.0707
same,area with substrate TNLYFQS,0.0686
T114S,area with substrate DNLYFQS,0.0859
same,area with substrate GNLYFQS,0.0851
same,area with substrate HNLYFQS,0.0671
same,area with substrate MNLYFQS,0.0668
same,area with substrate VNLYFQS,0.0555
same,area with substrate WNLYFQS,0.0578
same,area with substrate YNLYFQS,0.069
I145A,area with substrate DNLYFQS,0.104
same,area with substrate GNLYFQS,0.0443
same,area with substrate HNLYFQS,0.0813
same,area with substrate LNLYFQS,0.0667
same,area with substrate PNLYFQS,0.0816
same,area with substrate SNLYFQS,0.075
same,area with substrate TNLYFQS,0.0835
same,area with substrate VNLYFQS,0.0422
same,area with substrate YNLYFQS,0.0563
E108R,area with substrate DNLYFQS,0.0417
same,area with substrate HNLYFQS,0.0592
same,area with substrate INLYFQS,0.0318
same,area with substrate KNLYFQS,0.0531
same,area with substrate PNLYFQS,0.0587
same,area with substrate TNLYFQS,0.0479
same,area with substrate WNLYFQS,0.0452
same,area with substrate YNLYFQS,0.041
E108K,area with substrate DNLYFQS,0.0489
same,area with substrate HNLYFQS,0.0542
same,area with substrate KNLYFQS,0.0554
same,area with substrate LNLYFQS,0.051
same,area with substrate NNLYFQS,0.0522
same,area with substrate PNLYFQS,0.0566
same,area with substrate SNLYFQS,0.0571
same,area with substrate TNLYFQS,0.0511
same,area with substrate WNLYFQS,0.0586
P96D,area with substrate DNLYFQS,0.0893
same,area with substrate HNLYFQS,0.079
same,area with substrate KNLYFQS,0.0337
same,area with substrate LNLYFQS,0.0925
same,area with substrate MNLYFQS,0.0751
same,area with substrate NNLYFQS,0.0772
same,area with substrate SNLYFQS,0.0661
same,area with substrate WNLYFQS,0.0555
R102S,area with substrate DNLYFQS,0.0559
same,area with substrate FNLYFQS,0.0413
same,area with substrate HNLYFQS,0.0543
same,area with substrate INLYFQS,0.052
same,area with substrate KNLYFQS,0.0462
same,area with substrate PNLYFQS,0.0569
same,area with substrate QNLYFQS,0.0491
same,area with substrate RNLYFQS,0.0463
same,area with substrate SNLYFQS,0.0527
same,area with substrate TNLYFQS,0.0459
same,area with substrate VNLYFQS,0.0649
same,area with substrate WNLYFQS,0.0513
same,area with substrate YNLYFQS,0.0412
Q75L,area with substrate DNLYFQS,0.11
same,area with substrate HNLYFQS,0.0726
same,area with substrate NNLYFQS,0.103
same,area with substrate WNLYFQS,0.0504
F117T,area with substrate DNLYFQS,0.0818
same,area with substrate FNLYFQS,0.0706
same,area with substrate HNLYFQS,0.0639
same,area with substrate INLYFQS,0.0582
same,area with substrate MNLYFQS,0.1
same,area with substrate SNLYFQS,0.0662
same,area with substrate TNLYFQS,0.0624
same,area with substrate WNLYFQS,0.0406
F117Y,area with substrate DNLYFQS,0.0484
same,area with substrate HNLYFQS,0.0738
same,area with substrate MNLYFQS,0.0691
same,area with substrate PNLYFQS,0.0725
same,area with substrate SNLYFQS,0.0619
same,area with substrate TNLYFQS,0.0822
same,area with substrate WNLYFQS,0.0539
I86P,area with substrate DNLYFQS,0.0534
same,area with substrate LNLYFQS,0.0452
same,area with substrate PNLYFQS,0.0345
same,area with substrate RNLYFQS,0.0417
same,area with substrate SNLYFQS,0.0428
same,area with substrate WNLYFQS,0.0409
same,area with substrate YNLYFQS,0.0336
I86M,area with substrate DNLYFQS,0.0793
same,area with substrate FNLYFQS,0.063
same,area with substrate HNLYFQS,0.0821
same,area with substrate INLYFQS,0.097
same,area with substrate KNLYFQS,0.0647
same,area with substrate LNLYFQS,0.0507
same,area with substrate MNLYFQS,0.0615
same,area with substrate NNLYFQS,0.0627
same,area with substrate PNLYFQS,0.0603
same,area with substrate QNLYFQS,0.0566
same,area with substrate RNLYFQS,0.044
same,area with substrate VNLYFQS,0.0735
same,area with substrate WNLYFQS,0.0575
I84M,area with substrate DNLYFQS,0.088
same,area with substrate FNLYFQS,0.0612
same,area with substrate KNLYFQS,0.0359
same,area with substrate LNLYFQS,0.0627
same,area with substrate PNLYFQS,0.0704
same,area with substrate TNLYFQS,0.0628
same,area with substrate WNLYFQS,0.065
